# Hit rate of the full screen: of about 420,000 compounds, about 64,000 (15%) were called active. The shares of active, inactive and inconclusive entries below differ from those in the screen. Calls come from the whole dose curve; as a rule, active = well fitted inhibition curve with a large enough effect; inconclusive = small, poorly fitted or top-dose-only effect; inactive = flat fitted curve, though single readings scatter. No potency is given beside an inconclusive call; the fits are too rough.
# Test: qHTS for Inhibitors of human tyrosyl-DNA phosphodiesterase 1 (TDP1): qHTS in cells in absence of CPT; note: nearly all actives have a fitted effect of over 55% in size
# Conditions: DT40 Tdp1-/- hTDP1 cells, no CPT, ATP luminescence, 48 h; activity change, negative = growth inhibition: at 46.2 µM (top of the series) unless noted
# How it was run: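 Compound effects on proliferation are scored in DT40 Tdp1-/-;hTDP1 cells in the absence of CPT. ATP levels (CellTiter-Glo luminescence) are recorded after a ≥48 hr, 37 °C incubation.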
# % is set by controls: 0 for no effect and ±100 for the full control effect; potency is the fitted concentration of half-maximal effect; tags give direction and shape of the fitted curve.
Compound,Potency,"activity change, negative = growth inhibition"
Cc1ccc(C)c(CN2C(=O)C(C)Oc3ccc(C)cc32)c1 (stereo not given),"inconclusive [inhibitor, partial curve]",
CCOC(=O)N1CCc2c(sc(NCc3ccc(N(C)C)cc3)c2C(=O)Nc2ccc(OC)cc2)C1,"inconclusive [inhibitor, single point]",
CCNC(=O)C1(C)CCCN(C(=O)c2oc3ccccc3c2C)C1 (stereo not given),,inactive: 5.73%
O=c1c2sc3ccccc3c2n(Cc2cccc(C(F)(F)F)c2)c(=O)n1Cc1ccccc1,"inconclusive [inhibitor, single point]",
CCCCC1(Cc2ccc(OC)c([N+](=O)[O-])c2)C(=O)N(c2ccccc2)N(c2ccccc2)C1=O,"inconclusive [inhibitor, single point]",
CCOC1=C/C(=C/c2c(N)n3nc(S(=O)(=O)CC)sc3nc2=O)C=CC1=O,,inactive: -1.67%
Cc1c(Cl)cccc1N1C(N)=C(C#N)C(c2cc(CN3CCOCC3)cs2)C2=C1CCCC2=O (stereo not given),"inconclusive [inhibitor, single point]",
Cc1ccccc1C(=O)NNC(=O)c1cccn1C,,inactive: -22.4%
CN(C)CCNc1cc(N2CCN(C)CC2)ncn1,,inactive: 4.34%
CC1Cc2ccccc2N1C(=O)CSc1nnc(-c2ccc(S(=O)(=O)N3CCCC3)cc2)o1 (stereo not given),active: 16.4 µM,
Cc1nn(Cc2c(Cl)cccc2Cl)c(C)c1NC(=O)c1cc(C(C)C)on1,active: 20.6 µM,
Nc1nc(SCC(=O)Nc2cccc(Oc3ccccc3)c2)n[nH]1,"inconclusive [inhibitor, single point]",
COc1cccc(CC2(CO)CCCN(C/C=C/c3ccccc3OC)C2)c1 (stereo not given),"inconclusive [inhibitor, single point]",
COc1ccc(CNC(=O)c2cc3cc(S(=O)(=O)N4CCCCC4)ccc3n2C)c(OC)c1,"inconclusive [inhibitor, single point]",
COc1cccc(NC(=O)CN(C)C(=O)c2cc(S(=O)(=O)N3CCCCCC3)ccc2OC)c1,,inactive: -24.7%
O=C1N(Cc2cccc(C(F)(F)F)c2)c2ccccc2S(=O)(=O)N1c1cccc(Cl)c1,"inconclusive [inhibitor, single point]",
Cc1ccc(S(=O)(=O)N2C[C@H]3[C@H]4C(=O)N(c5ccccc5)C(=O)[C@H]4CC(=O)[C@H]3[C@@H]2c2cccc3ccccc23)cc1,,inactive: 18.9%
COc1ccc(NC(=O)CCc2c(C)nc3c(c2C)c(=O)n(C)c(=O)n3C)cc1OC,"inconclusive [inhibitor, partial curve]",
O=C(Nc1ccccc1)N1C(=O)C2(OCCO2)c2ccccc21,"inconclusive [inhibitor, full curve, poor fit]",
COc1ccc(CNc2ccnc(-c3cccc(C#N)c3)n2)c(OC)c1,"inconclusive [inhibitor, single point]",
O=C(C(=O)N1CCCC1)c1c(-c2ccccc2)[nH]c2ccccc12,,inactive: -22%
COc1ccc(NC(=O)Nc2ccccc2C(N)=O)cc1,,inactive: -27.4%
Cc1ccc2c(c1C)NC(=O)C2(O)CC(=O)c1ccc2c(c1)OCO2 (stereo not given),,inactive: -11.3%
COC(=O)c1sccc1NC(=O)CCC1CCCC1,,inactive: -16.7%

Compound,Potency,"activity change, negative = growth inhibition"
CN(CC(=O)Nc1ccccc1Cl)C(=O)COC(=O)c1ccc([N+](=O)[O-])s1,,inactive: -11.3%
Cc1cccc(C)c1-n1nnnc1C(c1ccnc2ccccc12)N1CCCC1 (stereo not given),"inconclusive [inhibitor, single point]",
CCOC(=O)C1CCC(CNCc2ccc(Cl)cc2)CC1 (stereo not given),"inconclusive [inhibitor, single point]",
Cc1cc(OC(C)C)c2c(-c3ccccc3)cc(=O)oc2c1,"inconclusive [inhibitor, single point]",
O=C(c1ccc(Cl)cc1)c1c[nH]c(C(=O)NNc2cccc(Cl)n2)c1,"inconclusive [inhibitor, single point]",
CN(C)c1ccccc1C(=O)N1CCCC(C(=O)c2ccc3ccccc3c2)C1 (stereo not given),active: 23.1 µM,
N#Cc1c(C(F)(F)F)cc(-c2cccs2)nc1SCC(=O)Nc1ccc(F)cc1,"inconclusive [inhibitor, single point]",
CC(C)(C)NCc1cccn1-c1sc2c(c1C#N)CCCC2,,inactive: -29.2%
NS(=O)(=O)c1cccc(NC(=O)CSc2nc3ccccc3c(=O)n2CCCN2CCOCC2)c1,,inactive: -6.39%
COc1ccc(NC(=O)c2cc(-c3ccccc3O)n[nH]2)cc1Cl,,inconclusive: -23.7% [inhibitor]
CC(=O)Nc1ccc(NC(=O)CSc2ccc(-c3ccc4c(c3)OCO4)nn2)cc1,"inconclusive [inhibitor, single point]",
COc1ccc(CNC(=O)c2ccc3c(c2)N(Cc2ccccc2F)C(=O)c2ccccc2S3(=O)=O)cc1,,inactive: -17.5%
C[C@H](CO)N1C[C@H](C)[C@@H](CN(C)C(=O)Nc2ccc(C(F)(F)F)cc2)Oc2c(NS(=O)(=O)c3ccc(F)cc3)cccc2C1=O,,inactive: -23.4%
CCCNC(=S)N1CCN(c2nc(-c3ccc(C)cc3)cs2)CC1,"inconclusive [inhibitor, single point]",
C=C(C)CNC(=S)/N=c1\scc(C)n1CC,active: 20.6 µM,
Cc1c(NS(=O)(=O)c2ccc3c(c2)Cc2ccccc2-3)c(=O)n(-c2ccccc2)n1C,"inconclusive [inhibitor, single point]",
COC(=O)c1cc(OC)c(OC)cc1NC(=O)CCc1ccc(C)o1,"inconclusive [inhibitor, single point]",
COc1ccc(NC(=O)c2nc[nH]c2C(=O)N2CCN(c3ccccc3)CC2)cc1,"inconclusive [inhibitor, single point]",
COc1cccc(C(C)(O)c2nc(-c3ccc(OC)c(OC)c3)cs2)c1 (stereo not given),"inconclusive [inhibitor, partial curve]",
COc1cccc(-c2nc(CS(=O)(=O)CC(=O)Nc3cc(C)ccc3C)c(C)o2)c1,"inconclusive [inhibitor, single point]",
CCCN(CCC)c1nc(-c2ccccc2F)nc2ccccc12,"inconclusive [inhibitor, single point]",
COc1cccc(-c2cc(C(=O)Nc3ccncc3)c3ccccc3n2)c1,active: 16.4 µM,
O=C(Nc1cccc(Cl)c1N1CCOCC1)c1ccc2c(c1)OCCO2,"inconclusive [inhibitor, single point]",
CCN(CC)S(=O)(=O)c1cc(NC(=O)CNc2cccc(S(=O)(=O)N3CCOCC3)c2)ccc1C,active: 2.06 µM,

Compound,Potency,"activity change, negative = growth inhibition"
CC(c1cccs1)N(Cc1ccco1)C(=S)Nc1ccccc1Cl (stereo not given),,inactive: -7.91%
CCC(C(=O)Nc1cc(OC)c(NC(=O)c2ccccc2)cc1OC)c1ccccc1 (stereo not given),"inconclusive [inhibitor, single point]",
N#Cc1c(NC(=O)CSc2nnc(-c3ccccc3)o2)sc2c1CCCC2,"inconclusive [inhibitor, single point]",
O=C(NCCC(=O)N(Cc1ccco1)Cc1cccs1)c1ccccc1Cl,"inconclusive [inhibitor, single point]",
COc1ccccc1CNCCS(=O)(=O)NCc1ccccc1,"inconclusive [inhibitor, single point]",
COc1ccc(OCc2ccc(-c3nc(C#N)c(N4CCN(c5cccc(Cl)c5)CC4)o3)o2)cc1,,inactive: -15.9%
CC(NC(=S)NCCN1CCOCC1)C12CC3CC(CC(C3)C1)C2 (stereo not given),"inconclusive [inhibitor, single point]",
O=C(CSc1nc2c([nH]c3ccccc32)c(=O)n1-c1ccc(F)cc1)NC1CCCCC1,"inconclusive [inhibitor, single point]",
Cc1ccc(Cn2c(=N)n(CC(O)COc3ccccc3)c3ccccc32)cc1 (stereo not given),active: 9.2 µM,
CSc1nc2ccccc2n1Cc1cccc(F)c1,"inconclusive [inhibitor, single point]",
CCN(CCNCC(O)COCc1ccc(Cl)cc1)c1cccc(C)c1 (stereo not given),"inconclusive [inhibitor, single point]",
CCc1ccccc1NC(=O)CSC1=Nc2ccccc2C2=NC(Cc3ccccc3)C(=O)N12 (stereo not given),"inconclusive [inhibitor, single point]",
CN(CC(=O)O)S(=O)(=O)c1ccc2c(c1)NC(=O)CC(=O)N2,,inactive: 12.9%
Cc1cccc(N(C(=O)c2snc(C(N)=O)c2N)C(C(=O)NC2CCCC2)c2ccco2)c1 (stereo not given),"inconclusive [inhibitor, single point]",
Cc1cc2nc(C)n(CCCNC(=O)Nc3cccc4ccccc34)c2cc1C,active: 14.6 µM,
COc1ccc(/C=C/C2=NN(C)C(=O)CC2)cc1,"inconclusive [inhibitor, partial curve, poor fit]",
O=C(Nc1nnc(-c2ccco2)o1)c1ccc(S(=O)(=O)N2CCOCC2)cc1,"inconclusive [inhibitor, single point]",
NNc1nc2cc3c(cc2s1)OCCO3,"inconclusive [inhibitor, single point]",
COc1cc(Cl)c(C)cc1NC(=O)Cn1ncc2c(=O)oc3ccccc3c21,,inactive: -14.7%
S=C(NNC(=S)NC1CC2C=CC1C2)NC1CC2C=CC1C2 (stereo not given),"inconclusive [inhibitor, single point]",
O=C(COc1ccccc1)NCCSc1ccccc1,,inactive: -26.4%
CCOC(=O)C1=C(C(C)=O)C(c2cccnc2)C(C#N)=C(N)O1 (stereo not given),,inactive: 0.794%
